Test results as given in publication PMC10726135.
Some of the results follow. At the low end of the ranking, values are background and their order means little. Measured with an extract: partners may take part in the binding.

biological target: T1, HNF4alpha8 (COS-7 nuclear extract) (UniProt P41235-5); assay: protein-binding microarray; conditions: COS-7 nuclear extract on double-stranded Agilent 4x180k PBM; binding buffer, salt, pH and temperature not given; high values mean tight binding; double strand, one strand shown; sequences stand for … in …GCCTAGGGAGATTAGAGTATCGGTCGA
T1 sequence: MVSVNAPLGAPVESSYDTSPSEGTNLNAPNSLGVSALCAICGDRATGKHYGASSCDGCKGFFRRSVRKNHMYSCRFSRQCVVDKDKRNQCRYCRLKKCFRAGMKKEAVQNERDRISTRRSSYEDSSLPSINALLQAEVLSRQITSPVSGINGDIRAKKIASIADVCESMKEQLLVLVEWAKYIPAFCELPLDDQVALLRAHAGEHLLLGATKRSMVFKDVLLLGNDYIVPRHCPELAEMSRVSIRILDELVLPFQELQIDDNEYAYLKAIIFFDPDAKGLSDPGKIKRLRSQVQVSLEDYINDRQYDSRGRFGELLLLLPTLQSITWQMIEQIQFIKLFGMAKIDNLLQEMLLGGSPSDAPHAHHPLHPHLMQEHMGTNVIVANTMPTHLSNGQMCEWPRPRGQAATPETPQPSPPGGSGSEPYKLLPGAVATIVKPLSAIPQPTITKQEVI

Sequence	binding signal (log2 normalized intensity)
AAATCTTAAGGAGGAGTGCTAGAGAAAGGA	-1.36
CCAAACAATGCAAGAGAGGTCACAACAGAA	-1.31
CCCCACCATTGTTATCTGATCAAATTCCAC	3.36
CAAAGTCCTCCAACTGCCACGGTAAATATT	1.05
CAGGGATCAAATCCTAACATGCTGCAGGCA	-1.08
CCAAATTCCAGCTGAAGTTCCCAGCCCTTC	-0.535
TCTCTCTCTCTTTCTTCCCCCACTCCAAGT	4.77
GGCGACCTTCGCTCGGCTCGCTCTCCCTGC	0.281
CAGGGGTCATCAGATAGATGGTCAGTGAAC	1.88
GTAAGGTCGACCTTTAAACGTTTGCTGGAT	5.1
TTAGAGAGAGAAATTGCTTAAGTGCTTGTC	-0.724
CCAGTGGTCCCTGGAGATAATAGTGGCTGA	-1.37
CTCCTAAGCAGGACAGCAGAGTGGAGGCCA	-1.07
AGGTCACTTTACAGATAAAGAAACCATAGA	-1.43
CTGCCCTTCTGACCTCCCAGGGATACTGTG	2.99
ACATTCTTCCATATAACCCTTGAACCTTCT	5.82
TAGTGCATAGTGGGTTTCGGTGTCATCTAG	1.01
AACAGGCAGAAGAATGGATGAGCTAATCAG	-1.3
CTAAGCACCTCTGCTTATCTCAACTGATTT	-0.839
AGCTTTTTGTTTGTGTAAGTGTGGGTTTAA	2.13
GCAGTTTGTCAAGTGCCCGGATAAACTTCC	-0.141
TGGAGTGCACTGTGATCTTTAGAAAATACT	-0.0739
GTCACTCCTTCCTCAAGACCCTTTACTGCC	1.61
TCTCTGGAGGTCACTGCTGGTGGGTGGGGG	0.406
ACCAAAACCAAGATAGTGACGGAGGTGACC	1.88

Sequence	binding signal (log2 normalized intensity)
ATTTGGAAGTAAGAACCCCACTATTCAGGA	2.1
ATTCCTGGGAACTGCGGACATAGCTTGCCA	-1.3
TCAACAAGACCCTGCCCTTTCCCCCGCCCT	4.91
CCTCTGCCTTTCAGGCAGGAGACGATGGTT	-1.16
GCAAGGAAATAAAAGAGCCTGAGCCACTTC	-1.32
TTAAAAAGCAAACAAAACACGGACTTTGAA	4.97
CTGACAGAACTAAGCTGTTGCGTAAGGGTC	1.93
GCAAGATCTCACAGATTAAGTCACGTGGAG	-0.935
AATCCCAGGGTCAGAGGTCGCGAGGGAGAG	3.67
TCCAAAGAGCTCAACCTGTGAAAATTGGTA	-1.22
CCATTACTTCTGTTTGCATTAGTTATATCT	0.622
AGGATCACCTGAGTCCAGAGGTCAAGGCTG	4.56
AGGCCAGGCATACCTTTCTTATCATAAGTA	-0.864
AACGGCAGGGTTGTGCAGGACTGCGTAACT	-1.25
GGGAAAACTTACGCACATTACTTTGATTGG	-1.19
AAGGTCTTAAGTGTCATTAGTAACAAACAC	0.846
CCTCCCACCCCCACGGTGCGCTGCCCCTCA	5.28
GGCCGCCCAAGCGAATATGTCAGGCTCAGG	-1.09
ATGAATGCCTTGGCCTCTGCAGACATGGAC	1.31
CCTTACCATTGCTTTCTTCCAAGGCTGCAA	-1.39
GCAGAGCAGGTTCTCAGGCCAATCATATCT	-1.3
GTCTTCCTGGTGACCTTTGTTTGGTCAAAT	4.87
CTGACCCCAGCATGTTTGGGTCACAATCAC	2.53
GTAGATAAGCAGATCTGGGCAATGTCAACA	-1.19
CACTGCTTTGTTCCCTGGCTCACTGACTCA	-1.3

Sequence	binding signal (log2 normalized intensity)
TTTCACCTCTGCACCCCACCAAGGACTGGA	2.69
CAATTAGAGCAAAGGTTACTGCAGAGAAGA	2.07
CCAGAACGTGGCCTTTAATCAACTGCAGGA	-1.14
TAACTCAAAATCTGCTCTGTCCTGAGATGT	0.898
CTGAAACATGCCTATGACCGAGGGTTAAGC	-0.405
GAACTGAGCAGGCCTGGGCTTGCAAAGGTC	3.51
TGTACAAAGGTCACTTCTGTTCATTGATAA	4.79
CCTTTTTTGAAGGTTAAAGTCCATTTTTGA	7.52
GGGAGGGTGGGTTATCAGTAAGAGCATCAG	-0.864
CAGATGGAATGTGTGCCCGTCACCTCTGAA	-0.151
TCCTTCCTCAAGACCCTTTACTGCCATCTG	0.38
AAAGAGACAAAGCTTTGAAGATGCTTTTTG	-1.32
ATTCCTTCCCAAGTGCTAGCTTGGTCTGAA	-0.612
AAACTGCAGCTGCTGCACTGATAAGAAAGC	-1.32
ACATGTACAGTATTGCGTAAGTTGTTCCTT	1.31
AGCTGCTTCGGCCAGCACAGGAGGCCTCTC	-1.38
AGGAGCCAATTATGCTGGCAGTAGGGAGGT	-1.48
GAGGAAAAGGAGGAGTTTGACCCCAGGTAG	5.1
ACTGATAGGTGCGTGGGGGAGGGGCCAGGA	-1.42
TTCTTAGGGAGATGGATATATGTACAGCTG	-0.376
GACGCAGAGAAGCACTGCAGTTTAAGTCTG	-1.5
GGAAATGATAGCATCCCAGTAGAAAAAAAA	-1.37
ACTTGAGGTATGATGCATCCTGAGGCAAAA	-1.17
AGTCCCATAACTGACTGTGTCTGTTTACCC	1.45
TTTCTCTTTTGACCTTTGGACTTTCACATT	11

Sequence	binding signal (log2 normalized intensity)
ACAAAGAAATGTAACCTTTGGCCAATTGCA	5.13
GCAATTGGTCAAAGGTCACCAGTGAGCCAA	5.73
GTTTTTTTCACCTGGGGCCTTGGGCCACCT	-0.891
TGTTTGCCTCTCAGCTCATTCAAAGTCCAA	4.2
TCATGACAAAGAAATGTAACCTTTGGCCAA	7.31
CCTGACTCAAGAAAGGATCTCACCCAAACC	-1.24
AGGTTTCCACTGATAAAGTTCTTTTGTGTG	1.22
GGCAGAGTTGTTTGCAGAGGGAAAGCGAGA	-1.22
GGAACTGTCCACCAAGGAGGTGCTGACAGG	-1.29
TGAGATTTTGCTCAACAAATATTAGCTGTT	-1.46
TGTCCATGGTGACCATGTGATGTGAAGAGT	-0.253
TTCCTGGCAGCCAGCTGGTTTGCCTCTCTT	-1.34
CTGGCCTTCCTGGCCCTAGCTGGGTTTTTC	0.0952
GAGTCTGTTGTCTAACATTTTTGACCTTCA	4.68
GCCCAGTCAAACCCCGCGCTCCAGGCATGG	-1.02
ATGTGTTAGGCAAGCAAACTGCAAATACAG	-1.31
GCCCCATAACCACCATTAGACTCTGCCCTC	4.98
GCCGGCGCAGCCGCGCTCCGCCCCGTTCCC	2.08
CTCTTACAACGAGGTGCCAGAAACCTGACT	-1.22
TATCATACTCAGCTAATCTAGAGACACTAT	-1.41
CTGTGGATAGCTCAGGGATTAACGACTCAT	-1.24
CAGTACTGAAACATGCCTATGACCGAGGGT	0.281
GTTAAAGTCCGTTACAGACAGGCAGCCCCT	0.205
AAGGCCACAGCTCAGATCACAAAAGATGGA	-1.34
ATGACAAAGGTGAGAGAGCATCCAGATAAA	-1.19

Sequence	binding signal (log2 normalized intensity)
CCCCAAAGGCTCTCTGTTGACCACCTGCCC	2.43
CTCCGCTAAGTGGCTCGACAACGATTTGGG	-1.18
GGAGTCAAGCAAACACACTTGCTCTAATCC	-1.28
GTAAATTCTTGAGCAGTCACTGGGAGATAT	-1.15
ATGACTCCAAAGTTCAAACTCTGAAAGCAC	3.38
GACACTGCTCTCTCCAGGGGAGGGTGACCA	-0.232
TAACACCAGATAAACAGAAGAAAGGGGCTA	-1.43
GAAGCCACAGAAGTCTTTCCCTGCCAGTTC	-1.26
GTCTGACAGATAAGATTTGGAAAATATTGC	-1.06
CAGAGCACAGCAGGGCAGGGTATGCCTGAC	-1.39
GAGGGGATTGATGGAATTCCACTGACTGCT	-1.35
ACCCCCAACTTCCCCAACCCTTGCACTGCT	3.95
AGATTTGAATATGTACATGGACTTTGAACC	10.6
CTCTCCCAGTGGAATGCAAATATAGAAATA	-0.275
CGGGTTCTGCGCAGGGAGGAGCGCATCGGG	-1.28
AAAGGTCTGAGAACCAAGAGAGCCATTGGT	-1.35
AGGGGAAAAAGGACTCTGGGAAGATTAAGG	-1.33
GTGAGCCACCACGCCCGGCCAAAGACCACA	-1.28
TGAGAGAGCATCCAGATAAAGCTGAAGAAA	-1.01
AGCAATTTAGCAGCACCATCCTACAGGGTA	-1.3
TGATAGTCTGCTACCATCAGATAAGCTCAG	-1.3
TAGAATCTGCAGCCCCTTTTGGAATCCCCA	4.23
AAAGTTTCACTTTCTCTTATAGCTCAACCC	0.389
GGCCTGCATGACTACATTCTTTGAAGACTA	-1.25
GTGGGTGCCAAACAAAAAGGGCAAAGGTCA	8.84

Sequence	binding signal (log2 normalized intensity)
AGGTGCTGCCTTGGAGGTGAGGGTTACAGG	0.123
CTGGTGTGAGGTCAGTTGATAAACAGATAA	0.649
TGGTGTAAGCACTTGTGGTATGTTTGGATT	2.29
AGCACGGCCAGGATTAACCACAGAAATGCC	-1.36
GGAGGGGTAAGGGTGGGGGTGGGGAGGATA	-1.31
AGCCTTATCAGTATCAATGAGATCTCCCCA	2.25
GCAAGTAGAGCTGCTTACATTTTGCTCTGT	0.196
TGTAACTGTAACTATATTGACCACCTCCTC	1.35
GAGTCTTAGGGAGGGGCCAGGACAAAGGTC	6.64
TGAGTTATTGGAAGAATGGAATTGCCATTG	0.79
GGGGACCTTTGGCCTTTACCTGTTACTTAT	4.06
TGTCACCCAGCCAGAATTCTCCCTGCAGTC	-1.44
GCGCCAGGCTGGGGGCAGAGTTCACCCCAT	4.31
CTCAAGCTTCAGGAGTCCACTGTGTTCTTG	2.05
TGAAATTTGGCCTGCTGAGCCCAATCTAGC	-1.31
AGATAGTGACGGAGGTGACCTTTGGTTGTC	6.24
GCAAGTCGAGCAAGGTTCAGCACATTTATG	0.657
GCGCGGGCAGGTTGCCCTTTCGGTGGGACT	2.96
TGAGACGCAAGCATATCTCTAGATCTCAGT	-1.21
CCTCCCCCCTTCTGTTTCCAGAAATCTGAC	2.58
